± gives the uncertainty stated by the source. The list shows a part of the results. Phosphotyrosine is written y.
B1: LCK_192/A1 (peptide)
chain: yISPRI
B2: KRCM_125/A1 (peptide)
chain: yVLSSR
B3: LYN_306/A1 (peptide)
chain: yAVVTR
B4: KRCM_173/A1 (peptide)
chain: yYPLKS
B5: LTK_672/A1 (peptide)
chain: yRASYY
B6: LYN_473/A1 (peptide)
chain: yDIMKM
B7: KIT_900/A1 (peptide)
chain: yDIMKT
B8: KIT_568/A1 (peptide)
chain: yVYIDP
B9: KIT_570/A1 (peptide)
chain: yIDPTQ
B10: LCK_505/A1 (peptide)
chain: yQPQPG
B11: KIT_703/A1 (peptide)
chain: yKNLLH
B12: ALK_1131/A1 (peptide)
chain: yEGQVS
B13: ALK_1282/A1 (peptide)
chain: yRKGGC
B14: KIT_721/A1 (peptide)
chain: yMDMKP
B15: LYN_265/A1 (peptide)
chain: yYNNST
B16: LYN_193/A1 (peptide)
chain: yYISPR
B17: LCP2_113/A1 (peptide)
chain: yESPND
B18: LYN_316/A1 (peptide)
chain: yIITEY
B19: LCP2_145/A1 (peptide)
chain: yEPPPS
B20: LCP2_173/A1 (peptide)
chain: yIDRPP
B21: LTK_677/A1 (peptide)
chain: yRRGDR
B22: KIT_936/A1 (peptide)
chain: ySNLAN
B23: LCP2_128/A1 (peptide)
chain: yESPNE
B24: KS6B1_62/A1 (peptide)
chain: yELGME
B25: LMNA _646 /A1 (peptide)
chain: yLLGNS
B26: MCM6_276/A1 (peptide)
chain: yETEGI
B27: LCP2_23/A1 (peptide)
chain: yFKKLN
B28: KRCM_174/A1 (peptide)
chain: yPLKSM
B29: ALK_1096/A1 (peptide)
chain: yCFAGK
B30: LYN_32/A1 (peptide)
chain: yVRDPT
B31: KBTBD10_587/A1 (peptide)
chain: yASGAS
B32: KIT_823/A1 (peptide)
chain: yVVKGN
B33: LTK_676/A1 (peptide)
chain: yYRRGD

Target: GRB2 (endogenous complexes from cell lysate), P62993
Test: GRB2 complex binding differential signal (pY peptide minus Ala control peptide) (fluorescence intensity units); higher = stronger GRB2 complex binding
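Further: phosphopeptide probes on the chip at 1–4 µM, lysate proteins bound in 20 mM Tris pH 7.0 buffer with 140 mM NaCl, 1% Triton X-100 and 5% glycerol.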

Binder	GRB2 complex binding differential signal (MCF7)	GRB2 complex binding differential signal (MCF10A)	GRB2 complex binding differential signal (MDA-MB-231)	GRB2 complex binding differential signal (T47D)
B1	25900 ± 6200	14100 ± 2600	3310 ± 470	4710 ± 1200
B2	2360 ± 750	1290 ± 570	1530 ± 420	1760 ± 1200
B3	3480 ± 700	1550 ± 270	432 ± 290	528 ± 1100
B4	1880 ± 1100	1340 ± 400	1100 ± 340	1050 ± 1000
B5	358 ± 280	272 ± 260	1110 ± 510	4520 ± 1500
B6	1060 ± 280	745 ± 180	212 ± 370	371 ± 1100
B7	681 ± 260	883 ± 200	888 ± 470	268 ± 840
B8	2.6 ± 260	83.1 ± 340	1060 ± 360	850 ± 1000
B9	8830 ± 1700	4600 ± 620	3710 ± 2800	2280 ± 1000
B10	4280 ± 470	4320 ± 670	839 ± 290	722 ± 960
B11	50800 ± 6200	7070 ± 2200	4030 ± 720	27700 ± 6100
B12	1290 ± 500	1460 ± 340	783 ± 390	577 ± 1000
B13	1220 ± 370	967 ± 280	127 ± 300	149 ± 1000
B14	1590 ± 470	1150 ± 1600	989 ± 280	920 ± 870
B15	10700 ± 1800	4700 ± 900	2520 ± 630	13600 ± 3800
B16	2230 ± 510	1060 ± 450	345 ± 550	1260 ± 1000
B17	11600 ± 1600	5420 ± 810	3250 ± 420	3470 ± 1400

Binder	GRB2 complex binding differential signal (MCF7)	GRB2 complex binding differential signal (MCF10A)	GRB2 complex binding differential signal (MDA-MB-231)	GRB2 complex binding differential signal (T47D)
B18	145 ± 420	309 ± 320	380 ± 290	689 ± 1400
B19	4470 ± 1300	3100 ± 1000	3050 ± 500	2290 ± 1300
B20	2400 ± 1800	1520 ± 310	400 ± 480	1620 ± 990
B21	1240 ± 350	709 ± 440	62.3 ± 260	45.2 ± 1200
B22	38900 ± 4500	18500 ± 5100	6610 ± 1100	17500 ± 2300
B23	5480 ± 3400	5790 ± 1000	4120 ± 1000	2320 ± 1200
B24	301 ± 240	93.3 ± 210	371 ± 270	
B25	179 ± 300	193 ± 310	784 ± 580	749 ± 1500
B26	2050 ± 820	1240 ± 830	1630 ± 430	1800 ± 1100
B27	2150 ± 610	146 ± 140	764 ± 320	899 ± 1000
B28	446 ± 820	1170 ± 410	336 ± 310	304 ± 910
B29	256 ± 360	165 ± 420	208 ± 260	180 ± 1100
B30	2390 ± 1400	4940 ± 830	1850 ± 400	2650 ± 1100
B31	1400 ± 480	2300 ± 960	482 ± 890	625 ± 1000
B32	1850 ± 470	1740 ± 650	942 ± 490	375 ± 770
B33	1410 ± 370	576 ± 850	191 ± 310	340 ± 1800

Reference: the supplement of paper PMC3694890
